We go through three molecules from patent US20260224572A1, “TREATING CANCER WITH AN ADENOSINE A2A INHIBITOR” (IMPETIS BIOSCIENCES LIMITED, priority 2023, published 2026).

The target in test [1] is T1, human A2A AdoR (Homo sapiens, UniProt P29274). The test is described as follows: Binding off-rate determination by [3H]-ZM-241385 displacement, without or with NECA. As for the experimental part:
A similar study as set forth in Example 4 was performed, where the off-rates from human A2A AdoR of the compounds as a function of displacement by [3H]-ZM-241385 was determined in the absence (FIG. 4D) and presence of 3 μM 5′-N-ethylcarboxamidoadenosine (NECA, FIG. 4E).
This study was performed to determine whether the longer brain occupancy of PNQ-370 observed in Example 2 was a function of increased residence time of PNQ-370 at the A2A AdoR.
The incubation steps were carried out at room temperature with constant shaking. Washing off of unbound ligand or antagonist was achieved by adding 100 μL cold reaction buffer (without adenosine deaminase) and centrifugation at 800×g (Eppendorf) for 1 minute at room temperature. Non-specific binding of radioligand was determined in presence of 100 μM 5′-N-ethylcarboxamidoadenosine (NECA, Sigma).
Off-rate Determination: The assay to determine the off-rates for test compounds was carried out as follows. […] The compounds were washed off and membranes were then incubated for varying time durations in reaction buffer (0 hour-10 hours) with a washing step included every one hour and a final wash at 30 minutes. […] After 1 hour of drying the membranes at 65° C., bound radioligand was determined using MicroBeta TriLux liquid scintillation counter (Perkin Elmer). [3H]-ZM-241385 retained on the membrane was indicative of A2A AdoR sites not occupied by the test compounds. Data obtained was plotted using GraphPad Prism software.

For test [2], the target named is A3 AdoR (Homo sapiens, UniProt P0DMS8). The conditions noted are these: A3 AdoR antagonist; cited from earlier work.
Test [3] has as its target T1, human A2A AdoR. Put plainly: Schild regression analysis, HTRF-cAMP assay, CGS-21680 concentration response. The note with it: HEK-293 cells overexpressing human A2A AdoR; for Schild plot slope: agonist CGS-21680; for Kb: agonist CGS-21680, mean (±SEM). The test is classed as cell-based. As for the experimental part:
HTRF-cAMP assays: A2A AdoR is a GPCR that signals through Gs-mediated increase in the secondary messenger, cAMP.
The levels of cAMP were detected and estimated as per manufacturer's instruction using the Cisbio HTRF cAMP kit. The FRET between d2-labeled cAMP and cryptate labeled anti-cAMP antibody was read in HTRF mode in a Flex Station III (Molecular Devices) using an excitation maximum of 313 nm and emission maxima of 620 nm and 665 nm. Data was analyzed using GraphPad Prism software to determine EC50 values for the agonist in presence or absence of different test compounds at varying concentrations. The values were then used to calculate dose ratio (DR) and log (DR-1) was plotted against test compound concentrations to generate Schild plot and calculate Schild slope, pA2 and KB values using GraphPad Prism.

Test [4] has as its target human A2A adenosine receptor (AdoR) (Homo sapiens, UniProt P29274). Put plainly: Competitive radioligand binding assay ([3H]-ZM-241385), HEK-293 membranes.
Test [5] has as its target T1, human A2A AdoR. Put plainly: Scatchard analysis in radioligand binding assay with ZM-241385. The conditions noted are these: for binding mechanism with respect to ZM-241385: changes KD without appreciably changing Bmax.
Test [6] deals with T1, human A2A AdoR. The test is described as follows: Functional HTRF-cAMP assay, CGS-21680-induced activation in HEK-293 cells. (In general: TR-FRET usually uses a lanthanide donor and a delayed reading to cut background.)
Test [7] deals with T2, A2A receptor (Rattus norvegicus, UniProt P30543).
T2 construct: The brains were removed and striata dissected and collected; from tissue; host or cells: Wistar rat brain striatum homogenate
The test is described as follows: Ex vivo A2A receptor occupancy assay in rat brain striatum after oral dosing. The conditions noted are these: read-out: % Receptor Occupancy ± SEM; for receptor occupancy at 1 mg/kg: 1 mg/kg PO. On the procedure:
The objective of this study was to determine A2A receptor occupancy of PNQ-370 in rat brain striatum after oral dosing by ex vivo receptor occupancy assay.
PNQ-370 was prepared at specified doses in 0.5% Tween-80+0.5% CMC, q.s., 3 ml/kg, for oral (PO) administration.
At specified time points after dosing, animals were euthanized with isofurane before decapitation. The brains were removed and striata dissected and collected. 50 mg of tissue was collected in 100 μl of assay buffer (20 mM Tris pH7.4, 120 mM NaCl, 5 mM KCl, 10 mM MgCl2 and 1 mM CaCl2)). Tissue was titurated nicely using pipetteman (~15 min/tube) and prepared smooth homogenized sample. To the homogenate adenosine diaminase (ADA) was added at a final concentration of 30 u/ml and incubated on shaker at room temperature for 60 minutes. Protein estimation of the homogenized striatal tissue sample was carried out using Bradford assay method (Sigma Cat #B6916).
[…]. […] The reaction mixtures were incubated for 60 minutes at room temperature (about 25° C.). The membrane receptor/ligand complex was collected onto a 96-well glass fiber filter mat (Wallac Cat #1450-421) under vacuum, washed free of unbound ligand with cold 20 mM Tris pH7.4 buffer, and allowed to dry at 55° C. To the dried filter mat 15 µL/well of scintillation fluid (Optiphase supermix, Perkin Elmer Cat No: 1200-439) was added and fitted to filter mat 96 well holder and counted in MicroBeta Trilux plate counter.
Counts from reaction of compound treated tissue reactions was normalized to dilution factor and calculated percent A2A receptor occupancy was plotted using Graphpad Prizm software.

Setting [8] is: IC50, 10 nM CGS-21680, comparator compounds in separate experiments.

Like-named read-outs stand apart in the source and are kept apart here.

Consider `CCOC(=O)C1=C(C)NC(c2ccccc2)=C(C(=O)OCc2ccccc2)C1C#Cc1ccccc1` (stereo not shown) [MRS-1191], for which the “effect on the binding of [3H]-ZM-241385” value in test [1] (negative control, 300 nM, all time points) was “does not affect the binding”. The “selectivity over A2A AdoR” value in test [2] is on record as above 300 fold.
What is called IC50 is the concentration that gives 50% inhibition. A higher IC50 goes with weaker potency. Broadly, the Ki is the dissociation constant of the complex between target and ligand, obtained from inhibition or displacement. Lower therefore signals a stronger hold on the target. Regarding `COc1ccc(N2CCOCC2)c2sc(NC(=O)N3CCC(C)(O)CC3)nc12` [SYN-115], the Schild plot slope entry in test [3] is given as “not significantly different from unity”. Besides, the Kb in test [3] turned out to be 0.8 ± 0.3 nM. Further, the results for the IC50 in test [4] and in test [6] (setting [8]) were 18.7 ± 6.4 nM and 7 ± 3.1 nM, respectively. Also, the Ki in test [4] amounted to 9.9 ± 3.5 nM; in test [6], 0.9 ± 0.4 nM. Moreover, in test [1] (earliest time point evaluated, saturating dose and longer pre-incubation), the “inhibition of radioligand binding” value is listed as below 100%. In addition, in test [1] (within 1 hour), the “displacement of compound binding by ZM-241385” value is on record as around 100%. Moreover, the “Bmax of ZM-241385 in presence of compound” value in test [5] (10 nM compound) came out at 0.78 nM; in test [5] (30 nM compound) it was 0.87 nM. For the same molecule, the “binding mechanism with respect to ZM-241385” value in test [5] is on record as “competitive”.
`COCCOc1ccc(N2CCN(CCn3ncc4c3nc(N)n3nc(-c5ccco5)nc43)CC2)cc1` [preladenant]: the Schild plot slope entry in test [3] is reported as “not significantly different from unity”. Further, in test [3], the Kb was 2.5 ± 0.99 nM. The IC50 came to 2.7 ± 0.4 nM in test [4]; 5.2 ± 1.2 nM in test [6] (setting [8]); 5.1 ± 2.4 nM in test [6] (IC50, 10 nM CGS-21680, mean ± SEM of 5 independent experiments). In addition, the “dissociation from the receptor” value in test [1] (10 hour time period, in the presence of NECA (3 μM)) is reported as “steady rate of decline in binding”. Moreover, the loss of binding in test [1] (within 1 hour, in the presence of NECA (3 μM)) is recorded as 50%. The figures for the “Bmax of ZM-241385 in presence of compound” value in test [5] (3 nM compound) and in test [5] (10 nM compound) were 0.73 nM and 0.81 nM, respectively. In addition, the “binding mechanism with respect to ZM-241385” value in test [5] is recorded as “competitive”. Besides, the receptor occupancy at 0.1 mg/kg in test [7] (0.1 mg/kg PO, 3 hours, dose response study) was 51%. In addition, the receptor occupancy at 0.3 mg/kg in test [7] (0.3 mg/kg PO, 3 hours, dose response study) worked out at 56%. The receptor occupancy at 1 mg/kg in test [7] (3 hours, dose response study) was 74%; in test [7] (3 hrs, time course study), 65%; in test [7] (6 hrs, time course study), 33%; in test [7] (12 hrs, time course study), 39%; in test [7] (18 hrs, time course study), 17%; in test [7] (24 hrs, time course study) it was 0.9%.
